{"source": "PubChem BioAssay AID1458", "about": "(National Center for Advancing Translational Sciences (NCATS), 2008)", "note": "About 5,900 (2.8%) of roughly 210,000 compounds were called active. The shares of active, inactive and inconclusive entries below differ from those in the screen. Calls follow the shape of the dose curve; as a rule, active = well fitted activation curve with a large enough effect; inconclusive = small, poorly fitted or top-dose-only effect; inactive = no such curve, though single readings can be large or run the other way. Potencies beside an inconclusive call are fits to weak or partial responses and may not hold up. Potency is read from the fitted curve at half-maximal effect; tags tell the direction and shape of the fitted curve.", "data": [{"test": "qHTS Assay for Enhancers of SMN2 Splice Variant Expression; also: nearly all actives have a fitted effect of over 55% in size; as to activity change, positive = activation: % of control where 0% means no effect", "settings": "HEK293 SMN2-luciferase splicing reporter, luminescence, 30-36 h; activity change, positive = activation: at 46.1 µM (top of the series)", "procedure,_shortened": "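qHTS luciferase splicing reporter: luminescence rises when SMN2 exon 7 is included in transfected HEK293 cells. Compound exposure lasted 30-36 h at 37C, with 4.5 mM final sodium butyrate as control, followed by a ONE-Glo read.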", "values": [{"smiles": "COc1ccc(-c2ccc3c(N)c(C(=O)NCc4ccc(C)cc4)sc3n2)cc1", "Potency": "inconclusive: 25.1 µM [activator, single point]"}, {"smiles": "O=C(c1cccnc1Nc1ccc2c(c1)CCC2)N1CCOCC1", "Potency": "inconclusive: 0.355 µM [activator, full curve]"}, {"smiles": "COc1ccc(CNC(=O)CSc2nc(-c3ccccc3)cc(-c3cccs3)c2C#N)cc1", "Potency": "inactive"}, {"smiles": "O=C(Nc1ncc([N+](=O)[O-])s1)C1CCN(S(=O)(=O)c2cnc[nH]2)CC1", "Potency": "inconclusive: 7.08 µM [activator, full curve]"}, {"smiles": "COC(=O)c1ccc(C2OCC(C)(C)CO2)cc1", "Potency": "inconclusive: 35.5 µM [activator, single point]"}, {"smiles": "O=C(Nc1ccc(Nc2ccc3c(c2)C(=O)c2ccccc2C3=O)c2c1C(=O)c1ccccc1C2=O)c1ccccc1", "activity change, positive = activation": "inactive: -11% [at 9.22 µM]"}, {"smiles": "CC(C)(Oc1ccc(Cl)cc1)C(=O)NCc1ccco1", "Potency": "inconclusive: 14.1 µM [activator, single point]"}, {"smiles": "CN(C)c1ccc(N/C=C/C(=O)c2ccc(F)cc2)cc1", "Potency": "active: 10 µM"}, {"smiles": "Cc1ccc(-c2nnc(-c3ccc4ccccc4c3)o2)cc1", "Potency": "inconclusive: 3.55 µM [activator, single point]"}, {"smiles": "COCCn1c(C)cc(C(=O)CSc2ncn[nH]2)c1C", "Potency": "active: 5.62 µM"}, {"smiles": "CCN1CCN(S(=O)(=O)c2cccc3nsnc23)CC1", "Potency": "inconclusive: 5.62 µM [activator, single point]"}, {"smiles": "CC1CCC2(CC1)Nc1ccccc1C(=O)N2c1ccccc1", "note": "(centres undefined)", "Potency": "inconclusive: 3.55 µM [activator, partial curve]"}, {"smiles": "CN(Cc1ccccc1)C(=O)COc1ccccc1", "Potency": "inconclusive: 11.2 µM [activator, partial curve, poor fit]"}, {"smiles": "Cc1ccnc(NC(=O)CCCOc2cc(=O)n(C)c3ccccc23)c1", "Potency": "inconclusive: 3.16 µM [activator, partial curve, poor fit]"}, {"smiles": "Cc1cc(C)nc(NS(=O)(=O)c2cccs2)c1", "Potency": "inactive"}, {"smiles": "CN(C)/C=N/C(=S)Nc1cc(Cl)cc(Cl)c1", "Potency": "inactive"}, {"smiles": "COc1ccccc1NC(=O)CNC(=O)c1ccccc1", "Potency": "inconclusive: 3.98 µM [activator, partial curve]"}, {"smiles": "CCc1nnc(NC(=O)C2CCCN2S(=O)(=O)c2ccc(F)cc2)s1", "note": "(centres undefined)", "Potency": "inconclusive: 0.398 µM [activator, partial curve, poor fit]"}, {"smiles": "COc1ccc2nc3sc(C(=O)NCc4cccs4)c(N)c3cc2c1", "Potency": "active: 3.55 µM"}, {"smiles": "CCC1CCc2c(sc(NC(=O)c3ccoc3C)c2C(N)=O)C1", "note": "(centres undefined)", "Potency": "inconclusive: 35.5 µM [activator, single point]"}, {"smiles": "COc1ccc(NC(=O)Cn2c(=O)n(CC(=O)NCCc3ccccc3)c(=O)c3ccccc32)cc1", "Potency": "inconclusive: 35.5 µM [activator, single point]"}, {"smiles": "O=c1cc(-c2ccc(O)cc2)oc2cc(O[C@H]3OC(CO)C(O)C(O)C3O)cc(O)c12", "note": "(some centres undefined)", "Potency": "inconclusive: 31.6 µM [activator, single point]"}, {"smiles": "Cc1nc(SCc2c(F)cccc2Cl)n[nH]1", "Potency": "inconclusive: 10 µM [activator, partial curve, poor fit]"}, {"smiles": "CCc1ccc(NS(=O)(=O)c2ccc3[nH]cc(C(=O)NCc4ccc(C)cc4)c(=O)c3c2)cc1", "Potency": "inconclusive: 3.16 µM [activator, partial curve]"}, {"smiles": "Cc1ccccc1CN(c1ccc(C(=O)Nc2ccccc2C(=O)NCc2ccco2)cc1)S(C)(=O)=O", "Potency": "inconclusive: 1.12 µM [activator, full curve, poor fit]"}, {"smiles": "O=C(Nc1ccc(Cl)c(Cl)c1)C1=Cc2ccccc2OC1", "Potency": "inconclusive: 35.5 µM [activator, single point]"}, {"smiles": "Cc1nn(-c2ccccc2)c(C)c1C(=O)OCC(=O)N(C)C1CCS(=O)(=O)C1", "note": "(centres undefined)", "Potency": "inconclusive: 17.8 µM [activator, single point]"}, {"smiles": "CCn1c(=O)c2cc(S(=O)(=O)NCCOc3ccccc3)ccc2n(CC)c1=O", "Potency": "inconclusive: 0.158 µM [activator, full curve, poor fit]"}, {"smiles": "Cc1ccc(CC2C(=O)N(c3nc(C)cc(C)n3)C(=O)C2C)cc1", "note": "(centres undefined)", "Potency": "inactive"}, {"smiles": "CCCn1c(=O)[nH]c(=O)c2c(C(=O)OCC)cc(-c3cccs3)nc21", "Potency": "inactive"}, {"smiles": "c1ccc2c(c1)Nc1nccnc1S2", "Potency": "inconclusive: 17.8 µM [activator, partial curve]"}, {"smiles": "CC(C)CC(=O)Nc1ccc2oc(-c3cccnc3)nc2c1", "Potency": "inconclusive: 11.2 µM [activator, partial curve, poor fit]"}, {"smiles": "COc1ccc(CN(Cc2ccco2)C(=O)c2ccccc2F)cc1", "Potency": "inactive"}, {"smiles": "Cc1cccc(CCNC(=O)c2nnc(Cc3ccc(Cl)cc3)o2)c1", "Potency": "inconclusive: 5.62 µM [activator, single point]"}, {"smiles": "COc1ccc(-n2c(=O)c3ccc(C(=O)NCc4ccc(C)cc4)cc3n(Cc3cccc(Cl)c3)c2=O)cc1", "Potency": "inactive"}, {"smiles": "N/C(=N\\OC(=O)c1ccccc1Cl)c1cccnc1", "Potency": "active: 15.8 µM"}, {"smiles": "Cc1ccccc1Cn1c2ccccc2c2cnn(CC(=O)NCCCc3ccccc3)c(=O)c21", "Potency": "inactive"}, {"smiles": "CCn1c(=O)cc(SCC(=O)NCCCN2CCC(C)CC2)c2ccccc21", "Potency": "inconclusive: 35.5 µM [activator, partial curve, poor fit]"}, {"smiles": "CN1CCN(c2ccc(NC(=O)c3ccc(-c4ccc(Br)cc4)o3)cc2)CC1", "Potency": "inactive"}, {"smiles": "S=C(NCCc1ccccc1)NCc1cccs1", "Potency": "active: 10 µM"}, {"smiles": "COC(=O)c1ccccc1NC(=O)NCCc1ccccc1OC", "Potency": "active: 12.6 µM"}, {"smiles": "O=C(CSc1ccc(Cl)cc1)Nc1cccc(-c2nnc(-c3ccco3)o2)c1", "Potency": "inconclusive: 7.08 µM [activator, partial curve, poor fit]"}, {"smiles": "COc1ccc(-n2cc(-c3ccc4c(c3)OCO4)n(CC(=O)Nc3cc(Cl)ccc3C)c2=O)cc1", "Potency": "inconclusive: 11.2 µM [activator, partial curve]"}, {"smiles": "COC(=O)c1ccc(C2CC(=O)Nc3cc(OC)c(OC)c(OC)c32)cc1", "note": "(centres undefined)", "Potency": "inconclusive: 6.31 µM [activator, partial curve, poor fit]"}]}]}
